Hit rate of the full screen: of about 370,000 compounds, about 150 (0.041%) were called active. The shares of active, inactive and inconclusive entries below differ from those in the screen. The call rests on the fitted dose curve; in most records, active means well fitted inhibition curve with a large enough effect; inconclusive means small, poorly fitted or top-dose-only effect; inactive means flat fitted curve, though single readings scatter. No potency is given beside an inconclusive call; the fits are too rough.
molecular target: Beta-lactamase (Escherichia coli (strain K12)) (UniProt P00811); assay: qHTS Inhibitors of AmpC Beta-Lactamase (assay with detergent); conditions: AmpC hydrolysis of nitrocefin, absorbance 480 nm, 0.01% Triton; activity change, negative = inhibition: at 114 µM (top of the series); further: nearly all actives have a fitted effect of over 25% in size;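 on activity change, negative = inhibition: 0% = no-compound wells and -100% = no-enzyme wells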
UniProt P00811, sequence (P00811 whole entry, looked up): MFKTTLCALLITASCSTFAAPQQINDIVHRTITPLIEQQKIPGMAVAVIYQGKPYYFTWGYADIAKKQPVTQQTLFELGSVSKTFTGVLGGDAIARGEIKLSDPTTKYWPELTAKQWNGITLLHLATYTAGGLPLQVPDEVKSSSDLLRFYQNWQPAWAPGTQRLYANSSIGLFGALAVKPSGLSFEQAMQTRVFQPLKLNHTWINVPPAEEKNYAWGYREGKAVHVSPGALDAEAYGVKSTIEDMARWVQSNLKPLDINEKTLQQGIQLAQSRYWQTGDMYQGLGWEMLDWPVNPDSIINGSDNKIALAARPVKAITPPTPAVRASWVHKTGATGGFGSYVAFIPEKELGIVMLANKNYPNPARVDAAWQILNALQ
How it was run: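 AmpC (5.3 nM in the dispensed reagent) in 20 mM phosphate pH 7.0 with 0.01% (detergent screen) or 0.0001% Triton X-100 was preincubated with compounds for 15 min at room temperature. Nitrocefin was then added from an 800 uM solution, and hydrolysis was followed at 480 nm.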
Potency means the concentration at half of the fitted maximal effect; tags describe the fitted curve by direction and shape.

Compound	Potency	activity change, negative = inhibition
CC1CCCCN1C/C=C/c1ccccc1[N+](=O)[O-] (stereo not given)	inconclusive [inhibitor, single point]	
CCOC(=O)C1CCCCN1Cc1cc(Cl)ccc1O (stereo not given)	inconclusive [inhibitor, single point]	
COc1ccc(CC(=O)OCC(=O)NCc2ccco2)cc1	inconclusive [inhibitor, full curve, poor fit]	
CCn1c(C)nc2cc(S(=O)(=O)C(F)(F)C(F)C(F)(F)F)ccc21 (stereo not given)	inconclusive [inhibitor, partial curve]	
Cc1cc(=O)oc2cc(OCC(=O)N3CCCC3)c(Cl)cc12	inconclusive [inhibitor, full curve, poor fit]	
Cc1cc(C)nc(SCc2ccc(C(=O)NN=C3C4CC5CC(C4)CC3C5)cc2)n1		inconclusive: -16.9% [inhibitor]
Cc1cc(C(=O)COC(=O)c2ccc3c(c2)OCO3)c(C)n1CC1CCCO1 (stereo not given)		inactive: -8.81%
C[C@H](C(O)c1ccccc1)N(C)C(=O)CN (stereo not given in full)	inconclusive [inhibitor, partial curve, poor fit]	
Cc1nn(C)c(C)c1/C=N/N=C1\CCC2C3CCc4cc(O)ccc4C3CCC12C (stereo not given)	inconclusive [inhibitor, full curve, poor fit]	
COc1ccc(N=C2SC(CC(=O)Nc3cccc(Cl)c3)C(=O)N2Cc2ccco2)cc1 (stereo not given)	inconclusive [inhibitor, full curve, poor fit]	
CCc1ccc(N2CC(C(=O)OCC(=O)NC3CCS(=O)(=O)C3)CC2=O)cc1 (stereo not given)	inconclusive [inhibitor, full curve, poor fit]	
Cc1ccc2c(c1)N(S(=O)(=O)c1ccc(CN3C(=O)c4cccnc4C3=O)s1)CCO2		inactive: 0.486%
COCCCn1c(=O)c2sccc2n2c(CCCC(=O)Nc3cccc(OC)c3)nnc12		inactive: -4.74%
Cc1ccc(-c2nc(NC(=O)c3nn(C)cc3[N+](=O)[O-])sc2C)cc1	inconclusive [inhibitor, single point]	
CCOP(=O)(OCC)c1nc(-c2ccc(Cl)cc2Cl)oc1N1CCCCC1		inactive: 0.917%
CCC(C)(C)n1nnnc1C(c1ccc(C)cc1)N1CCN(Cc2cccnc2)CC1 (stereo not given)	inconclusive [inhibitor, partial curve, poor fit]	
Nc1c(-c2ccc3c(c2)OCCO3)oc2ccccc2c1=O	inconclusive [inhibitor, full curve, poor fit]	
CCOc1nc(Nc2ccc(F)cc2)nc(N2CCN(c3ccc(OC)cc3)CC2)n1	inconclusive [inhibitor, full curve, poor fit]	
O=C(COc1ccccc1)Nc1nnc(C23CC4CC(CC(C4)C2)C3)s1	inconclusive [inhibitor, full curve, poor fit]	
CCOCCCNC(=O)C(=O)Nc1c2c(nn1-c1ccccc1)CSC2		inactive: 1.13%
CCC(=O)NC(=S)Nc1ccc(NC(=O)c2cc3ccccc3o2)c(OC)c1		inactive: -6.33%
O=C(NC(NC(=O)c1ccccc1)c1cccc([N+](=O)[O-])c1)c1ccccc1	inconclusive [inhibitor, full curve, poor fit]	
COc1ccc(NC(=O)c2cc(-c3cccnc3)nc3ccc(C)cc23)cc1OC		inactive: -8.97%

Compound	Potency	activity change, negative = inhibition
CN1C(=O)C(O)(CC(=O)c2cccc(-n3cccc3)c2)c2ccccc21 (stereo not given)		inactive: -2.11%
Cc1ccc(N(CC(=O)NCCSc2ccccc2)S(=O)(=O)c2ccc(F)cc2)cc1		inactive: 14.2%
COc1cccc(NC(=O)COC(=O)/C=C/c2ccc(Cl)cc2Cl)c1	inconclusive [inhibitor, full curve, poor fit]	
O=C(Cc1ccc(Cl)cc1Cl)OCC(=O)N1CCCCC1	inconclusive [inhibitor, partial curve, poor fit]	
Cc1ccc(/C(O)=C2/C(=O)C(=O)N(Cc3ccco3)C2c2cccs2)cc1 (stereo not given)	inconclusive [inhibitor, partial curve, poor fit]	
CC(C)CCNC(=O)c1ccc(CSCc2cccc(F)c2)o1	inconclusive [inhibitor, full curve, poor fit]	
CN1CCCCC1CCN1c2ccccc2Sc2ccc(S(C)=O)cc21 (stereo not given)		inactive: -2.93%
O=C(/C=C/c1cccs1)Nc1cccnc1		inactive: 0.174%
COc1ccccc1OCCNC(=O)CCC(=O)N1CCOCC1	inconclusive [inhibitor, full curve, poor fit]	
O=C(Cn1nc(-c2ccco2)ccc1=O)Nc1cc(Cl)ccc1Cl		inactive: -15.7%
COCCOC(=O)c1c(C)n(C)c2ccc(OC(=O)N3CCOCC3)cc12	inconclusive [inhibitor, full curve]	
CCn1c(O)c(C#N)c(C)cc1=O		inactive: -2.96%
O=C(N/N=C\c1ccc(Br)cc1)c1ccc(Cn2cccn2)o1	inconclusive [inhibitor, full curve, poor fit]	
CN1CCN(c2ccc(Cl)cc2N)CC1		inactive: 1.2%
Cc1ccc(NC(=O)C2=CCN(S(=O)(=O)c3ccc(F)cc3)CC2)c(C)c1	inconclusive [inhibitor, full curve, poor fit]	
Cc1cccc(C(=O)N2CCc3cc(-c4csc(NC(=O)CN5CCCC5)n4)ccc32)c1		inactive: 4.57%
Cc1nn(-c2ccccc2)c2[nH]c(=O)c(CNc3ccc4c(c3)OCCO4)cc12		inactive: -10.4%
CCCCOc1ccc(S(=O)(=O)Nc2ccc(NC(C)=O)cc2)cc1	inconclusive [inhibitor, full curve, poor fit]	
COc1ccc(C)cc1-n1nnc(S(=O)(=O)c2ccc(C)cc2)c1C		inactive: -4.31%
COc1ccc(OC)c(C2C3=C(COC3=O)Nc3cc4c(cc32)OCO4)c1 (stereo not given)		inactive: 6.39%
CC(C)NC(=S)N/N=C/c1c[nH]c2ccccc12	inconclusive [inhibitor, full curve]	
Clc1ccc(CSc2ncn(-c3ccccc3)n2)cc1	inconclusive [inhibitor, full curve, poor fit]	

Reference: PubChem BioAssay AID485294 (National Center for Advancing Translational Sciences (NCATS), 2010)
